Results on one molecule are retold here after PMC9418145 (2022).

The target in assay [1] is T1, LLT1^SIM, N120R, R153E, K169A secondary interaction mode triple mutant of the soluble LLT1 ectodomain (Homo sapiens, UniProt Q9UHP7 72-191, N120R | R153E | K169A | H176C). The assay can be described thus: AUC; BAB model, first site (KD1).
Assay [2] addresses T2, stabilized H176C form of the soluble human LLT1 ectodomain (Gln72-Val191), glycosylated (human, UniProt Q9UHP7 72-191, H176C, GlcNAc2Man5 glycans). Nature of the assay: AUC; BAB model, first site (KD1).
Assay [3] concerns the target T1, LLT1^SIM, N120R, R153E, K169A secondary …. Nature of the assay: AUC; BAB model, second site (KD2).
Assay [4] has the same target. Nature of the assay: AUC; A+B<=>AB model.
Assay [5] addresses T2, stabilized H176C form of the soluble …. The assay can be described thus: MST; A+B<=>AB model.
Assay [6] addresses T1, LLT1^SIM, N120R, R153E, K169A secondary …. Nature of the assay: MST; A+B<=>AB model.
For assay [7], the target named is T2, stabilized H176C form of the soluble …. Nature of the assay: AUC; BAB model, second site (KD2).

B1: soluble human NKR-P1 ectodomain (C-type lectin-like domain, […]), glycosylated with uniform GlcNAc2Man5 N-glycans (domain or fragment)
chain: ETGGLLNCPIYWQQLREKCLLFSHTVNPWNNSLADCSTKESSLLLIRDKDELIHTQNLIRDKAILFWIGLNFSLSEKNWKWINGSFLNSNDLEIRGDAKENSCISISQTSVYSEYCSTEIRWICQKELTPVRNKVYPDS
modifications: Asn-GlcNAc2Man5 N-glycans; potential N-glycosylation sites Asn116, Asn157, Asn169
On to B1, for which the Kd in assay [1] was found to be 299 µM; in assay [2], 52 µM; in assay [3], 308 µM; in assay [4] it was 318 µM; in assay [5], 102 µM; in assay [6] it was 260 µM. Binding in assay [7] was characterised by a dissociation constant (Kd) of 191 µM.
